PubChem BioAssay AID1347417 (National Center for Advancing Translational Sciences (NCATS), 2020)
About 5,300 (4.4%) of roughly 120,000 compounds were called active. Inconclusive means that the source gave no clear call. Such entries were picked first, then a sample of the others. The call rests on the fitted dose curve; in most records, active means well fitted inhibition curve with a large enough effect; inconclusive means small, poorly fitted or top-dose-only effect; inactive means no such curve, though single readings can be large or run the other way. A potency beside an inconclusive call is a rough fit, not a confirmed value.

experiment: qHTS Primary assay for Inhibitors of Plasmodium falciparum Dd2 growth in vitro; further: nearly all actives have a fitted effect of over 65% in size;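 on activity, negative = inhibition: plate controls were DMSO vehicle for no effect and reference drug for full effect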; conditions: P. falciparum Dd2 growth, SYBR Green, 72 h; activity, negative = inhibition: at 28.9 µM (top of the series) unless noted; series mostly up to 28.9 µM
Text: Malaria, a parasitic disease spread to humans through the bite of a Plasmodium infected Anopheles mosquito, continues to be a global health burden affecting millions of people, with an estimated 228 million cases and 405,000 deaths in 2018. Concerns about safety and limitations of current antimalarial treatments strongly emphasize the need to develop new therapeutic options. The scarce number of chemotypes and validated drug targets with efficacy against the liver stage, have hindered development of new antimalarials. To address this, a chemoprophylactic drug discovery effort was conducted through a combined phenotypic high-throughput asexual blood stage and liver stage screen, providing a robust foundation to identify liver-stage active lead chemotypes. Compounds were initially screened against Plasmodium falciparum Dd2 strain parasites using a in vitro SYBRGreen-1 based 72 hr proliferation assay to identify novel chemotypes to advance to liver stage assays. NIH/NCATS Early Translation Branch Assay Submitter (PI): Anton Simeonov Ph.D.
Malaria-vivax Assay Protocol: PROTOCOL TABLE (as described by Inglese et al., 2007) SEQUENCE No. (e.g., 1, 2, 3, etc.); […] (e.g., Cells, Incubation, Reagent, etc.); VALUE; DESCRIPTION SEQUENCE, Parameter, Description 1; Reagent; 3 uL complete malaria growth medium, 1536 TC treated Black clear bottom plate 2; Controls; 23 nL positive control artesunate (300 nM final) to column 1; Neutral control DMSO to columns 2-4 3; Compound; 23 nL of compounds in dose response concentration (29 uM to 0.5 nM final) 4; Reagent; 5 uL malaria infected red blood cells (2.5% hematocrit final, 0.3% parasitemia 5; Time; 72 hours at 37C (5% O2, 5% CO2, 90% N2; 95% Rh) 6; Reagent; 2 uL lysis buffer/SYBRGreen-1, 25 sec shake immediately following dispense 7; Time; ~16 hours at 37C (5% O2, 5% CO2, 90% N2; 95% Rh) 8; Detector; EnVision (PerkinElmer) bottom read at 485/14nm excitation and 535/25 nm emission NOTES (numbers refer to sequence above): 1; Complete Malaria Growth Media: 1X RPMI-1640 w/L-glutamine, 5.5g/L Albumax II, 367 uM Hypoxanthine, 25 mM HEPES, 0.25% Sodium Bicarbonate, 35 uM Gentamicin sulfate 2; Controls were added using the Kalypsis Pintool (Wako USA) equipped with 1536 pinhead 3; Compounds were added in a 7-point, titration with a high final concentration of 29 uM by Pintool from seven inter-plate titrations of library plates and two DMSO control plates at the beginning and end (see Yasgar et al., 2008). 4; Red blood cells infected with Plasmodium falciparum Dd2 parasites were used. 6; Lysis buffer: 20 mM Tris-HCl, 10 mM EDTA, 0.16% Saponin, 1.6% Triton-X, 10X SYBR Green. REFERENCE: Inglese J, Shamu CE, Guy RK. 2007. Reporting data from high-throughput screening of small-molecule libraries. Nat Chem Biol. doi:10.1038/nchembio0807-438 Yasgar A, Shinn P, Jadhav A, Auld D, Michael S, Zheng W, Austin CP, Inglese J, Simeonov A. 2008. Compound Management for Quantitative High-Throughput Screening. J Lab Autom 13:79-89. doi:10.1016/j.jala.2007.12.004
Potency means the concentration at half of the fitted maximal effect; tags describe the fitted curve by direction and shape.

SMILES	Potency	activity, negative = inhibition
CCOCc1nc(C2CCCN(C(=O)Cc3ccc(C)cc3)C2)no1 (stereo not drawn)	inactive	–
Cc1nc2cccnc2n1CC1CCCN(S(=O)(=O)c2cc(F)cc(F)c2)C1 (stereo not drawn)	inconclusive: 8.91 µM [inhibitor, single point]	–
CN(C)S(=O)(=O)c1ccc(CNC(=O)C2CCCN(CC(N)=O)C2)cc1 (stereo not drawn)	inactive	–
Cc1cc(C(=O)NCc2cccs2)c2c(C3CCCN3)noc2n1 (stereo not drawn)	inconclusive: 11.2 µM [inhibitor, partial curve, poor fit]	–
Cc1ccccc1-c1nccn2c(C3CN(Cc4ccc(O)cc4)C3)ncc12	active: 11.2 µM	–
C=C[C@H]1CN2CC[C@H]1C[C@@H]2CNC(=O)c1ccc2ccccc2c1	inconclusive: 10 µM [inhibitor, partial curve, poor fit]	–
CC(=O)Nc1cccc(NC(=O)CSc2cn(CC(=O)N(C(C)C)C(C)C)c3ccccc23)c1	inconclusive: 17.8 µM [inhibitor, single point]	–
CC1=C[C@@H](CNC2CCN(C)CC2)[C@H](C(C)C)C[C@H]1Cc1nc2ccc(F)cc2[nH]1	inactive	–
O=C1c2c(nc(CNCc3cccc(Cl)c3)n2Cc2ccccc2)NCCN1CCOc1ccccc1	inconclusive: 12.6 µM [inhibitor, single point]	–
CN1C(=O)[C@H]2CC[C@@H]1CN(C(=O)CCSc1ccc3c(c1)OCCO3)C2	inactive	–
CCn1cc(C(=O)N2CCN(c3ccc(F)cc3)CC2)c(=O)c2cc(S(=O)(=O)N3CCOCC3)ccc21	inconclusive: 10 µM [inhibitor, single point]	–
O=C(C1CCOCC1)N1CCc2nc(OCC3CC3)ccc2C1	inactive	–
O=C(C1CCCCC1)N1CCC2(CC1)CC(N(Cc1ccc(F)cc1)C1CC1)CCO2 (stereo not drawn)	inconclusive: 7.94 µM [inhibitor, partial curve, poor fit]	–
CCC1(N2CCN(C(=O)c3ccc(Cl)cc3OC)CC2)CCN(C(=O)NC)C1 (stereo not drawn)	inconclusive: 20 µM [inhibitor, single point]	–
COCc1nc(C2CC(N)C2)cc(N(C)Cc2nc3ccccc3c(=O)[nH]2)n1 (stereo not drawn)	inconclusive: 5.62 µM [inhibitor, partial curve, poor fit]	–
Cc1noc(C)c1CCC(=O)N1CCCn2nc(C(O)CO)cc2C1 (stereo not drawn)	inactive	–
O=C(C1CC1)N1CCC2(CC1)NCCc1c2[nH]c2ccccc12	inactive	–
O=C(c1cc2ccccc2oc1=O)N1CCC2(CCCN(Cc3ccccc3F)C2)C1 (stereo not drawn)	inactive	–
Cc1ccc(Cl)c(NC(=O)Nc2csc3c2CCCC3)c1	inconclusive: 20 µM [inhibitor, single point]	–
Cc1noc(C)c1-c1cc2c(c(-c3ccc(F)c(Cl)c3)c1)C(=O)N(C)C2	inconclusive: 17.8 µM [inhibitor, single point]	–
CO[C@H]1C(=O)N(C2CCN(S(=O)(=O)c3cccnc3)CC2)[C@H]1c1ccncc1	inconclusive: 0.398 µM [inhibitor, full curve, poor fit]	–
CCc1ccc(NC(=O)C(=O)NCC(c2ccc3c(c2)OCO3)N2CCOCC2)cc1 (stereo not drawn)	inconclusive: 0.0282 µM [inhibitor, full curve, poor fit]	–

SMILES	Potency	activity, negative = inhibition
Cc1cc2c(-c3ccc(S(C)(=O)=O)cc3)nc(-c3c(C)noc3C)cc2[nH]1	inconclusive: 10 µM [inhibitor, partial curve, poor fit]	–
COc1ccc(C2=NS(=O)(=O)N(C)C(C(=O)NCc3ccccc3)=C2)cc1OC	–	inconclusive: -51.1% [inhibitor] [at 0.594 µM]
CS(=O)(=O)N1C[C@H]2CCN(Cc3ccccc3C(F)(F)F)C[C@H]21	inactive	–
COc1cccc(N2C(=O)CSC23C(=O)N(Cc2ccccc2)c2ccccc23)c1 (stereo not drawn)	inconclusive: 15.8 µM [inhibitor, single point]	–
O=C(Nc1cccc(-c2nnc3n2CCCC3)c1)c1ccc[nH]c1=O	inconclusive: 3.98 µM [inhibitor, single point]	–
COc1ccc(Cn2c(C(C)n3cccn3)n[nH]c2=O)cc1 (stereo not drawn)	inactive	–
CCn1c(=O)n(-c2ccc(F)c(Cl)c2)c(=O)c2c3c(sc21)CN(C(C)=O)CC3	inactive	–
CCOc1cc(-c2nccn2CCNc2cccnc2)ccc1O	inactive	–
CNC(=O)CN1CN(c2ccccc2)C2(CCN(C(=O)NC34CC5CC(CC(C5)C3)C4)CC2)C1=O	inconclusive: 11.2 µM [inhibitor, partial curve]	–
COc1ccc(C(=O)N2CCN(C(=O)c3nnn4c3COC(c3ccc(C)cc3)C4)CC2)cc1 (stereo not drawn)	inconclusive: 3.98 µM [inhibitor, single point]	–
CCOc1ccc(CCNCc2c(C(=O)O)n(Cc3ccc(C)cc3)c3cc(OC)ccc23)cc1	active: 11.2 µM	–
O=C(N1CC(Oc2ccccc2-c2nc(C3CC3)no2)C1)C1(c2ccccc2)CC1	inconclusive: 17.8 µM [inhibitor, single point]	–
O=C(Nc1ccc2n(c1=O)C[C@H]1C[C@@H]2CN(CC2CCCCC2)C1)C1CCCCC1	inconclusive: 4.47 µM [inhibitor, full curve, poor fit]	–
O=C(C1CCCC1)N1CC2(CCN(Cc3ccccn3)C2)Cc2ccccc21 (stereo not drawn)	inconclusive: 7.94 µM [inhibitor, partial curve, poor fit]	–
CN1C(=O)CC[C@]2(C(=O)NCc3ccco3)CCCC[C@@H]12	inactive	–
Cn1c(=O)n(C)c2cc(S(=O)(=O)NCC3(O)CCCNCC3)ccc21 (stereo not drawn)	inactive	–
CCOc1ccc(NC(=O)c2cc(S(=O)(=O)N3CCCCC3)c[nH]2)cc1	inactive	–
Fc1cccc(-c2cnc(Nc3cccnc3)c3c2CCO3)c1	inconclusive: 14.1 µM [inhibitor, single point]	–
CCOC(=O)c1ccc(NC(=O)CCn2ccn3nc4c(c3c2=O)CCCC4)cc1	inconclusive: 5.62 µM [inhibitor, partial curve]	–
CC(C)c1cnc(C2CCCN(C(=O)OC(C)(C)C)C2)[nH]1 (stereo not drawn)	active: 11.2 µM	–
CCOCCCNC(=O)c1cc2c(=O)[nH]c(-c3ccccc3)cn2n1	inconclusive: 5.62 µM [inhibitor, partial curve, poor fit]	–
